Source: PubChem BioAssay AID488969 (Vanderbilt High Throughput Screening Facility, 2010)
Whole data set: some 110,000 compounds, median “z-score” near -0.1, cut for the highest 2% near 2. Some of the results follow. Calls of active or inactive are those of the source.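 The calls were made as follows: active = z-score in the third read window above 3 or below -3; inactive = the rest.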

Molecular target: Metabotropic glutamate receptor 8 (Rattus norvegicus) (UniProt P70579)
Assay: rat mGluR8 modulators via GIRK flux, primary screen, cell-based, thallium flux, HTS (AID 488969)
Settings: HEK293 rat mGluR8, GIRK (G protein-gated inwardly rectifying potassium channel) thallium flux, FluoZin2; at 10 µM; stronger effect = higher value; submaximal glutamate (EC20) added with thallium

Chain of UniProt P70579 (P70579 whole entry, looked up): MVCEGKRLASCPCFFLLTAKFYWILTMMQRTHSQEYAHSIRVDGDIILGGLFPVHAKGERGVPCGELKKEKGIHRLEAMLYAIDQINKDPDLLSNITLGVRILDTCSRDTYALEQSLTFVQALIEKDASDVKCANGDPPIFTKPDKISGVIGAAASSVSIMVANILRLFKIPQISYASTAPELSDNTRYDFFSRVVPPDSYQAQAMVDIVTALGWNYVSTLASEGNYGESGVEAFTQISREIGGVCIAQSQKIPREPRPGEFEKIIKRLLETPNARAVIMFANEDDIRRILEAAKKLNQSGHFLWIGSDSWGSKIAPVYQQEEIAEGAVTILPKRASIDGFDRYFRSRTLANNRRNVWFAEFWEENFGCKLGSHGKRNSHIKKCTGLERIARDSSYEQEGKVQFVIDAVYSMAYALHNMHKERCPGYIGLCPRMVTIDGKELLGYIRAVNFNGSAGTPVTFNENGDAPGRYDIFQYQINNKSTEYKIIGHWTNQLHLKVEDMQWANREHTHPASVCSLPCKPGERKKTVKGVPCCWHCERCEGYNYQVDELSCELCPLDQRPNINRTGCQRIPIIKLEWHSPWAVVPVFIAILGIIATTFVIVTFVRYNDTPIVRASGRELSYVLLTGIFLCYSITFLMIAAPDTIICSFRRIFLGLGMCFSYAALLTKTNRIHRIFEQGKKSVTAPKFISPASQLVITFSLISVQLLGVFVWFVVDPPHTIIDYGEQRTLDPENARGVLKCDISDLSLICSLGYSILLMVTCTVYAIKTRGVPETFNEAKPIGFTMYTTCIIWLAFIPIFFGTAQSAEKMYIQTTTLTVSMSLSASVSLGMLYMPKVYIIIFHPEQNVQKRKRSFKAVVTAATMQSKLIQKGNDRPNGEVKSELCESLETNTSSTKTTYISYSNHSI

Row | Compound | z-score
1 | O=C(CN1CCC(NC(=O)c2ccc(F)cc2)CC1)NCc1ccccc1F | 0.457
2 | CCOC(=O)C1=C(C)N=C(SC)N(C)C1c1ccccc1 (stereo unspecified) | -1.08
3 | O=C1C(Cl)=C(N2CCOCC2)C(=O)N1CCc1ccccc1 | -0.308
4 | N#CC(C(=O)NCc1ccccc1)c1nc2ccccc2nc1N1CCCC1 (stereo unspecified) | -0.252
5 | Cc1nc(N(C)C)c2sc(=S)n(C)c2n1 | 0.47
6 | O=C(Cc1n[nH]c(=O)[nH]c1=O)N/N=C/c1ccccc1 | -0.18
7 | CC(=O)c1ccc(NC(=O)c2cnn3c(C(F)F)cc(C4CC4)nc23)cc1 | 0.1
8 | CCNC(=O)C1CC(=O)N(c2ccc(Br)cc2)C1 (stereo unspecified) | 1.03
9 | O=S(=O)(Nc1cc(Sc2cccc3cccnc23)c(O)c2ccccc12)c1ccc(F)cc1 | active: 5.2
10 | CC(=O)Nc1c(C(=O)N2CCCCCC2)cnn1-c1ccccc1 | -0.74
11 | Cc1ccc(NC2CC(=O)N(Cc3ccccc3)C2=O)cc1 (stereo unspecified) | -0.0824
12 | O=C(COC(=O)CCSc1ccc(Cl)cc1)NCc1ccccc1 | -0.25
13 | CNS(=O)(=O)c1cccc2nsnc12 | -0.156
14 | CC(=O)Nc1ccc(OC(=O)c2ccco2)cc1 | -0.125
15 | Cn1c(=O)oc2cc(S(=O)(=O)NCCN3CCN(c4ccccc4)CC3)ccc21 | -0.321
16 | CCN(CC)CCNC(=S)Nc1ccc(Cl)cc1 | 0.561
17 | COc1ccc(-c2nc(N)nc(C)c2Oc2ccccc2Br)c(O)c1 | -0.381
18 | O=C(/C=C/Nc1ccccc1)c1ccc(Oc2ncccn2)cc1 | -0.188
19 | CCOC(=O)C(C)n1ncn2cccc2c1=O (stereo unspecified) | -0.581
20 | O=C(CS(=O)(=O)c1ccccc1)Nc1nc(-c2ccccc2)cs1 | 0.874
21 | COc1ccccc1NC(=O)CC1C(=O)NCCN1C(=O)Nc1ccc(Cl)c(Cl)c1 (stereo unspecified) | 0.0563
22 | CCCCC1(Cc2cccc([N+](=O)[O-])c2)C(=O)N(c2ccccc2)N(c2ccccc2)C1=O | -0.247
23 | O=C(CSc1cccc(C(F)(F)F)c1)NC(=O)c1ccccc1 | 0.0234

Row | Compound | z-score
24 | O=C(Nc1ccc(OCc2ccccc2)cc1)c1cccc([N+](=O)[O-])c1 | -1.52
25 | Cc1cccc(N2CCN(C(=O)c3c(C)nn(Cc4ccccc4Cl)c3C)CC2)c1C | 0.0617
26 | CCCOC(=O)NC1C(NC(=O)OCCC)N(C)C(=O)N1C (stereo unspecified) | 0.328
27 | Cc1ccc(-n2cnc3scc(-c4cccs4)c3c2=O)cc1 | -0.366
28 | COc1ccc(-c2cnn3c(N)c(S(=O)(=O)C(C)(C)C)cnc23)cc1 | -0.142
29 | Cc1cc(C)c(S(=O)(=O)NCCn2ccc3ccccc32)c(C)c1 | -0.437
30 | Cc1cc(NC(=O)CCC(=O)N(Cc2cccs2)C(C(=O)NC2CCCC2)c2cccnc2)no1 (stereo unspecified) | -0.0533
31 | CN(C(=O)c1ccccc1)C1(C)CCS(=O)(=O)C1 (stereo unspecified) | -0.199
32 | COc1ccc2c(CN3CCN(S(=O)(=O)c4cccs4)CC3)cc(=O)oc2c1 | -0.0625
33 | Cc1nc2c(cnn2-c2ccccc2Cl)c(=O)n1-c1ccc(N2CCC(C)CC2)cc1 | -1.16
34 | CC(=O)Nc1ccc(S(=O)(=O)N[C@@H](C)C(=O)Nc2ccc(N3CCOCC3)cc2)cc1 | 0.0468
35 | O=C(NCc1cccs1)c1csc2ccccc12 | 0.347
36 | CN(C)c1cccc(C(=O)NC2CCCCCC2)c1 | -0.0577
37 | Fc1ccc(C2CC(c3ccco3)=NN2c2ccccc2)cc1 (stereo unspecified) | 0.625
38 | Cc1cc(C)c2c(N)c(C(=O)c3ccccc3)oc2n1 | -0.545
39 | O=c1c2ccccc2c(-c2ccc(O)cc2)nn1-c1cccc(C(F)(F)F)c1 | -0.47
40 | Cc1ccc(C2CC2c2n[nH]c(=S)n2-c2cccc(Cl)c2)cc1 (stereo unspecified) | 0.358
41 | O=S(=O)(Nc1ccc(O)c(Sc2nc3ccccc3s2)c1)c1ccc(Cl)cc1 | -0.418
42 | Cc1ccc(NC(=O)CN(C)C(=O)CSc2ncc(C(F)(F)F)cc2Cl)cc1 | -0.234
43 | CC(=O)c1cc(F)c(N2CCN(C(=O)c3ccco3)CC2)cc1C | 0.167
44 | O=C(OCC#CCSc1nnc(-c2cccc3ccccc23)o1)c1cccs1 | 0.0313
45 | O=C(NCC1CCCO1)c1ccc(Cl)c(F)c1F (stereo unspecified) | -0.146
46 | Cc1cccc(C(=O)OCC(=O)Nc2ccc(N3CCCCC3)cc2)c1O | -0.231

Row | Compound | z-score
47 | C#CCSc1nc2[nH]ncc2c(=O)[nH]1 | -0.143
48 | CN(C(=O)c1ccccc1C(=O)c1ccccc1)C1CCS(=O)(=O)C1 (stereo unspecified) | -0.175
49 | Cc1ccc(S(=O)(=O)N2CCCC2C(=O)O)s1 (stereo unspecified) | -0.175
50 | CC1CN(C2CCN(C(=O)c3ccccc3Cl)CC2)CC(C)O1 (stereo unspecified) | 0.238
51 | O=C(OCc1ccc2c(c1)OCO2)c1ccc(S(=O)(=O)N2CCCCC2)cc1 | -0.138
52 | Cc1ccc(C)c(CN2C(=O)C3CCCN3c3ccc(C#N)cc32)c1 (stereo unspecified) | -0.327
53 | CCOC(=O)c1ccccc1NC(=O)c1ccccc1SC | -0.106
54 | Cc1ccc(OCC(=O)NC2CCCc3ccccc32)c(C)c1 (stereo unspecified) | -0.16
55 | CCc1nnc(NC(=O)CSc2nnc(-c3ccc(NS(=O)(=O)c4ccccc4)cc3)o2)s1 | -0.343
56 | CC12CCC(c3c1nc1ccccc1[n+]3[O-])C2(C)C (stereo unspecified) | -0.19
57 | COC(=O)c1ccc(NC(=O)Cn2nc(-c3ccncc3)nc2SCC(=O)Nc2nccs2)cc1 | -0.14
58 | O=C(CCn1c(=O)oc2ccccc21)NCCN1CCc2ccccc2C1 | 0.37
59 | CCOc1ccc(C2/C(=C(/O)c3ccccc3)C(=O)C(=O)N2CCCN(C)C)cc1OC (stereo unspecified) | 0.188
60 | Cc1nc(N2CCN(Cc3ccccc3)CC2)nc2c1C(=O)CC(C)C2 (stereo unspecified) | -0.812
61 | Cc1cccc(C(=O)NC(=S)N2CCN(C(=S)NC(=O)c3cccc(C)c3)CC2)c1 | 0.153
62 | NNc1nccc(Nc2ccccc2C(=O)O)n1 | 1.44
63 | O=C(NCC1CCCO1)C12CN(Cc3ccccc3)CC1C(c1cccc([N+](=O)[O-])c1)=NO2 (stereo unspecified) | 0.0433
64 | CCOC(=O)COn1c(=O)c[n+]([O-])c2ccccc21 | -0.0558
65 | Cc1ccc(C(=O)Nc2ccccc2C(N)=O)o1 | 0.0853
66 | CC(C)C(=O)OCC(=O)Nc1ccc(N=Nc2ccccc2)cc1 | active: 10.5
67 | COC(=O)c1sc(N)c(C(=O)OC)c1CSc1nnnn1C | 0.0241
68 | CC(C)Oc1ccc2nnnn2n1 | -0.239
69 | CCCOc1ccc(C(O)C(CN2CCOCC2)c2ccccc2)cc1 (stereo unspecified) | -0.138

Row | Compound | z-score
70 | CCOCCCNC(=S)N1CCN(C(=O)C(=O)Nc2ccc(C(=O)OC)cc2)CC1 | -0.11
71 | CC(C)Oc1cccc(-c2nnc(SCC(=O)Nc3ccc4c(c3)OCCO4)n2N)c1 | -0.419
72 | Cn1cc(CC(=O)N2CCN(c3ccccc3F)CC2)c2ccccc21 | -0.102
73 | CC1CN(S(=O)(=O)c2cccc(-c3csc(-c4ccccc4)n3)c2)CC(C)O1 (stereo unspecified) | 0.384
74 | CCOC(=O)c1c(CNCCN(CC)CC)n(C)c2cc(Br)c(OC)cc12 | active: 3.02
75 | C/C(=N\NC(=O)c1c(Cl)c(C)nn1C)c1ccc(NC(=O)COc2ccc(Cl)cc2C)cc1 | 0.132
76 | COC(=O)CNC(=O)c1ccc(C)s1 | -0.182
77 | CC(C)CNC(=S)NC(=O)c1ccc(Cl)cc1Cl | active: 13.8
78 | O=C(Cn1cc2c(n1)CCCC2)N1CCOCC1 | 0.216
79 | CCOC(=O)C1=C(c2ccccc2)ON(C)C1c1ccccc1 (stereo unspecified) | -0.0203
80 | CCNC(=S)Nc1ccc(N(c2ccccc2)C(C)C)cc1 | -0.0152
81 | COc1cc2c(=O)n(Cc3ccccc3)c(=O)n(CC(=O)NCCc3ccccc3)c2cc1OC | -0.669
82 | Cc1ccc(NC2=C(Cl)C(=O)OC2OC(=O)c2ccco2)cc1 (stereo unspecified) | -0.434
83 | CC1CCC2C(=O)N(c3ccccc3OC(=O)c3ccccc3)C(=O)C2C1 (stereo unspecified) | -0.566
84 | CCN(CCO)Cc1csc2cccc(Br)c12 | -0.193
85 | COc1cc2c(cc1NC(=O)C(C)N1CCN(S(=O)(=O)c3ccccc3[N+](=O)[O-])CC1)oc1ccccc12 (stereo unspecified) | -0.376
86 | O=C(CC1SC(=Nc2cccc3ccccc23)N(Cc2ccccn2)C1=O)Nc1ccccc1Br (stereo unspecified) | 0.215
87 | Cc1ccc2occ(/C=N/NC(N)=S)c(=O)c2c1 | -0.503
88 | NC(=O)c1cnn2c(C(F)(F)F)cc(-c3ccc(F)cc3)nc12 | 0.321
89 | O=C1CC(c2nc3ccccc3[nH]2)CN1c1ccccc1 (stereo unspecified) | -0.634
90 | CCOc1cccc(N2C(=O)CC(n3cnc4ccccc43)C2=O)c1 (stereo unspecified) | -0.143
91 | c1ccc(COc2ccc(OCCOCCn3cncn3)cc2)cc1 | 0.218
92 | Cc1ccc(-c2nnc(-n3nnc4ccccc43)c3ccccc23)cc1 | 0.00269

Row | Compound | z-score
93 | O=C(CN1CCOCC1)N1CCN(c2nnc(-c3ccccc3)c3ccccc23)CC1 | -0.343
94 | CCCCN(C(=O)CNC(=O)c1cccs1)C(C(=O)NC1CCCCC1)c1cccnc1 (stereo unspecified) | 0.108
95 | O=C(CC1SC(=O)N(Cc2ccc(Cl)cc2)C1=O)Nc1nccs1 (stereo unspecified) | -0.132
96 | COc1cc(NC(=O)c2ccc(F)cc2)c(OC)cc1Cl | -0.836
97 | Nc1nonc1-c1nc2ccccc2n1CC(=O)O | -0.383
98 | CCCCOc1ccc(/C=C/C(=O)OCC(=O)NC(=O)NCC(C)C)cc1OCC | -0.0691
99 | CCCSc1nn2c(=O)c3ccccc3nc2s1 | -0.252
100 | O=C(OCc1nc2ccccc2[n+]([O-])c1C(=O)c1ccccc1)c1cccs1 | 0.108
101 | Cc1nn(-c2ccccc2)c(C)c1NC(=O)COc1ccc(F)cc1Cl | -0.254
102 | CCn1c(Cc2ccccc2)nnc1SCc1ccc([N+](=O)[O-])cc1 | -0.0624
103 | CCC(CC)C(=O)Nc1cc([N+](=O)[O-])ccc1Cl | -0.151
104 | CCN(CC)C(=O)CSc1nc2c(sc(=S)n2CC)c(=O)n1-c1ccccc1 | -0.101
105 | O=C(Nc1ncccn1)C1CCCN1S(=O)(=O)c1ccc(Cl)c(Cl)c1 (stereo unspecified) | 0.92
106 | COc1ccc(C2CC(c3ccc(Br)cc3)=NN2C(=O)CSC2=NCCS2)cc1 (stereo unspecified) | -0.0812
107 | COc1ccc(OC)c(S(N)(=O)=O)c1 | -0.21
108 | Clc1ccc(Nc2nc(C3CC3)cs2)cc1 | -0.305
109 | Nc1nnnn1/N=C/c1cccc(Oc2ccccc2)c1 | -0.0762
110 | Cc1ccc(NC(=O)C(=O)NCc2ccc(/C=C(/C#N)C(=O)NCc3cccnc3)o2)cc1 | -0.269
111 | CCOc1nc(C)ccc1-c1noc(-c2ccccc2OC)n1 | -1.27
